Among all 310,000 compounds or so, about 2,200 (0.71%) showed an effect of 50% or more. The effect is printed as a negative number. Some of the results follow.
molecular target: human ether-à-go-go-related gene (hERG) potassium channel (human, UniProt Q12809); assay: primary screen, population patch clamp on CHO cells stably expressing hERG
Sequence (Q12809 whole entry, looked up): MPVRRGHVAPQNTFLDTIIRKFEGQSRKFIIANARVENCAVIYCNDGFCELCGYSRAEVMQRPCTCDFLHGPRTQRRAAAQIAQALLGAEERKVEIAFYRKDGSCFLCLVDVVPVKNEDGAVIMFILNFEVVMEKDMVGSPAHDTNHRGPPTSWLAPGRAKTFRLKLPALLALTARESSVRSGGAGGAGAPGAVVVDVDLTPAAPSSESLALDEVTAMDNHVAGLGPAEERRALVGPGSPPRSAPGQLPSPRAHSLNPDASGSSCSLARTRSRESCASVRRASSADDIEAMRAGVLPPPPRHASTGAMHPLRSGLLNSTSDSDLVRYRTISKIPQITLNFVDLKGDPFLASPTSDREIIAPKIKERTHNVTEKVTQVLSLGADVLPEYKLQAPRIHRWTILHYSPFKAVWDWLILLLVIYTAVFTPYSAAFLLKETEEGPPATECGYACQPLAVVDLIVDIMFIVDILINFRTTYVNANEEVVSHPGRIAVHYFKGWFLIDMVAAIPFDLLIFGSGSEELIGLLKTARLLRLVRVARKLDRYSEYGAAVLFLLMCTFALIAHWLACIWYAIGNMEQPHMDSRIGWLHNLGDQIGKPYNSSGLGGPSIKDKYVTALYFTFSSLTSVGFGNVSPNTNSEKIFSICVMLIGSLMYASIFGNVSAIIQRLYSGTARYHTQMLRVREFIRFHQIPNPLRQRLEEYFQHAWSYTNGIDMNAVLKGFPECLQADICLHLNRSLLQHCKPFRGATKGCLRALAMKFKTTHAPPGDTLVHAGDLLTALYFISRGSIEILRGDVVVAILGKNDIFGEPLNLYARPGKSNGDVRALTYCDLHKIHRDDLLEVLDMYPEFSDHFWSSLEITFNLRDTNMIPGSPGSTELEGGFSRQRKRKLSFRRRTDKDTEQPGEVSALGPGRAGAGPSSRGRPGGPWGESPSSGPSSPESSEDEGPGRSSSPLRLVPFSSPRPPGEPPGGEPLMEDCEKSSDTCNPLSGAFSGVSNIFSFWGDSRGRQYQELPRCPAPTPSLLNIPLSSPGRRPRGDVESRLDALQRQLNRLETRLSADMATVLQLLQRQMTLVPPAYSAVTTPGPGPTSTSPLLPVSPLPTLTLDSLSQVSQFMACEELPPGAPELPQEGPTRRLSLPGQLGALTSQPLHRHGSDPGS

SMILES | hERG current change (%, negative = inhibition) at 1uM [%]
O=C(CSc1n[nH]c(-c2ccncc2)n1)Nc1ccccc1C(F)(F)F | 11.2
CCn1c(COc2ccc(C(C)C)cc2)nnc1SCC(=O)Nc1nccs1 | -8.81
Cc1ccc2c(C)c(C(=O)N(Cc3ccccc3)C3CCS(=O)(=O)C3)oc2c1 (stereo not drawn) | 13.5
Cc1ccccc1-c1nc(CN2CCC(C(=O)NCCN3CCOCC3)CC2)c(C)o1 | 0.693
Cc1cccc(-n2c(CNC(=O)c3ccc(S(=O)(=O)N(C)C)cc3)nnc2SCC(=O)Nc2ccc(F)cc2)c1 | -1.8
Cc1ccc(N(C(C)C(=O)N2CCOCC2)S(C)(=O)=O)cc1C (stereo not drawn) | -6.27
Cc1nnc(SCC(=O)Nc2cc(S(=O)(=O)N3CCCC3)ccc2Cl)n1C1CC1 | 1.18
CC(C)(C)c1ccc(C(=O)NC2CCN(Cc3ccccc3)CC2)cc1 | -4.07
S=C(NCc1ccco1)Nc1ccc(Cl)cn1 | -0.704
Cc1ccc2c(c1)-c1c(cnn1CC(=O)Nc1ccccc1N1CCN(C)CC1)CO2 | -0.708
Cc1cc(NC(=O)CCC(=O)N(CC(=O)NC2CCCC2)Cc2cccs2)no1 | 13.1
CCN1C(=O)[C@H]2[C@@H](c3ccc(-c4ccc(OC)cc4)cc3)N[C@@](Cc3ccccc3)(C(=O)OC)[C@H]2C1=O.O=C(O)C(F)(F)F | 2.58
COc1cccc(-c2nc(CS(=O)(=O)CC(=O)Nc3c(C)cccc3C)c(C)o2)c1 | 18.2
O=C(NCCC1=CCCCC1)C1CCN(S(=O)(=O)c2cccc(C(F)(F)F)c2)CC1 | 14.2
O=C(CSc1ccc2c(c1)OCCO2)NCCc1ccc(Cl)cc1Cl | 12.3
O=C(N/C(=C/c1ccc(Br)cc1)C(=O)N1CCOCC1)c1ccco1 | 9.17
COc1ccccc1OCCOc1ccccc1/C=N/n1cnnc1 | 12.1
CCC(NS(=O)(=O)c1ccc(C)cc1)C(=O)N1CCC2(O)CCCCC2C1 (stereo not drawn) | 15.3
CCN1CCN(c2nc3sc4c(c3c3ncnn23)CC(C)CC4)CC1 (stereo not drawn) | 4.08
CCOc1ccc(CCNS(=O)(=O)c2cn(C)cn2)cc1OCC | 15.5
CC1=C/C(=N\N=C2\NC(=O)C(CC(=O)Nc3ccccc3F)S2)CC(C)(C)C1 (stereo not drawn) | 12.7

SMILES | hERG current change (%, negative = inhibition) at 1uM [%]
Cc1ccccc1N/C(=N/S(=O)(=O)c1ccccc1)c1ccc(F)cc1 | 5.33
Cc1cc(C)n2nc(C(=O)N(C)c3c(N)n(Cc4ccccc4)c(=O)[nH]c3=O)nc2n1 | 17.6
NC(=O)/C(=C/c1ccco1)C(N)=S | 17.6
COC(=O)c1c(NC(=O)c2ccc(OC(C)C)cc2)sc2c1CC(C)(C)NC2(C)C | 12.7
O=C(Nc1scc(-c2ccc(F)cc2)c1C(=O)O)c1ccco1 | 5.67
Cn1c(=O)c(C(=O)CCl)c(N)n(CC2CC2)c1=O | 6.98
CC(=O)c1cc(C(C)=O)c(C)[n+](C)c1C.[O-][Cl+3]([O-])([O-])[O-] | 12.8
COc1ccc(/C(O)=C2/C(=O)C(=O)N(CCCN(C)C)C2c2cccc(Cl)c2)cc1OC (stereo not drawn) | 13.4
Cc1cc(Cl)ccc1NC(=S)NCc1ccco1 | 10.2
Cc1cccc(NS(=O)(=O)c2ccc(C)c(C(=O)OCC(=O)Nc3cc(C)on3)c2)c1 | 15
C[C@H](NS(=O)(=O)c1ccc2c(c1)OCCCO2)C(=O)N1CCN(c2ccc(F)cc2)CC1 | -3.94
Cn1nnnc1SCC(=O)Nc1ccccc1C(=O)NCc1ccccc1 | 5.49
CCOC(=O)CN(C(=O)COc1nc(C)cc(C)c1C#N)c1ccc(Cl)cc1 | -1.94
COc1ccccc1-c1nnc(SCC(=O)NC2CCS(=O)(=O)C2)n1CCc1ccccc1 (stereo not drawn) | 11.2
Cc1ccc(OCCCCN2CCCC(C)C2)c([N+](=O)[O-])c1.O=C(O)C(=O)O (stereo not drawn) | -14.5
COc1ccc(CCN2C(=O)CC(Nc3ccc(N4CCOCC4)cc3)C2=O)cc1OC (stereo not drawn) | 0.935
CCNCCOC(c1ccccc1)c1ccccc1.Cl | -11
COC(=O)c1ccc(Cl)c(NC(=O)Cc2ccccc2[N+](=O)[O-])c1 | 11
COC(=O)C1=C(C)Nc2c(c(=O)n(C)c(=O)n2C)C1c1ccc(C)cc1 (stereo not drawn) | 8.66
COc1ccccc1C(=O)Nc1nnc(SCC(=O)NCC2CCCO2)s1 (stereo not drawn) | 13.9
N#Cc1ccc(CSc2nnc(-c3ccccn3)n2-c2ccccc2)cc1 | -13.3
